Test results taken from publication PMC10346264.
Read-outs that look alike come from different tables or passages of the source. These are yes or no findings as the source states them, for the method shown. Binding seen in cells or lysates may run through a third protein. Some entries that bind do so weakly or less than the wild type. For some assays here: Where a sequence is shown, tags or fusion partners need not be part of it.

Protein sequences, listed by entry. Tags and fused reporters are not part of them. Residues count along the entry.
UniProt Q9LVE2: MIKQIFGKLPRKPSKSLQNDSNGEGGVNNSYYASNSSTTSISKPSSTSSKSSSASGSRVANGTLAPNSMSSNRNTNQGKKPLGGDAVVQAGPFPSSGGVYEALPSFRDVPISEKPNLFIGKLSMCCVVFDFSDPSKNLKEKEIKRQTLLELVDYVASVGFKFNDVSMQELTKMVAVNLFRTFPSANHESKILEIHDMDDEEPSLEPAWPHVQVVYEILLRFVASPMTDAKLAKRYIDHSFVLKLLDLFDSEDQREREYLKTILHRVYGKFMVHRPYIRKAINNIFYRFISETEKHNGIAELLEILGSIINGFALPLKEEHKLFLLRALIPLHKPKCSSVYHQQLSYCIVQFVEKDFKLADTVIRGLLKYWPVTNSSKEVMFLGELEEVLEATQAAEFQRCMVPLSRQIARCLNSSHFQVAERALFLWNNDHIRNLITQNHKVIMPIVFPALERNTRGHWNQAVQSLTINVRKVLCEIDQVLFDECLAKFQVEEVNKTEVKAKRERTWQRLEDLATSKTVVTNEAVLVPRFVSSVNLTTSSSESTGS
UniProt P93033, residues 29-492: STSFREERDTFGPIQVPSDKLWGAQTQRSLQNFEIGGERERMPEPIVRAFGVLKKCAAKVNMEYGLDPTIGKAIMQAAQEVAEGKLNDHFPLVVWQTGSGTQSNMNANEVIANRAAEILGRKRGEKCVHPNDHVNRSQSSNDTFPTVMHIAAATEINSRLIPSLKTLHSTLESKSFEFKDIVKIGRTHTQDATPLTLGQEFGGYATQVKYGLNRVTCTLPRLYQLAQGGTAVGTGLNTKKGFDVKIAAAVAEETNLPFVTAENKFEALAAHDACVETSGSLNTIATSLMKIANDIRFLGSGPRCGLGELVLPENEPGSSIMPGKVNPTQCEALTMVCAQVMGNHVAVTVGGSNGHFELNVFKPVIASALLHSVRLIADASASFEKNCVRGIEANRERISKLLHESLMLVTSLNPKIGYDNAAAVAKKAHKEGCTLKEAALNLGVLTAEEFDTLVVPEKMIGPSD

Legend:
[1] = biological target: PP2A regulatory subunit B’ζ fused to the C-terminal part of Venus (pUC-VYCE C155 construct) (Arabidopsis thaliana) (UniProt Q9LVE2); assay: split reporter; BiFC with split Venus (VYNE N173 / VYCE C155), gene gun delivery into onion epidermal cells, analysed one to two days after bombardment, at least three independent experiments
[2] = biological target: PP2A regulatory subunit B’ζ fused to the C-terminal part of Venus (kanII-VYCE C155 construct) (Arabidopsis thaliana) (UniProt Q9LVE2); assay: split reporter; BiFC with split Venus (VYNE N173 / VYCE C155), transient expression in N. benthamiana leaves by Agrobacterium infiltration, analysed two days post infiltration, at least three independent experiments
[3] = biological target: PP2A regulatory subunit B’ζ fused to the C-terminal part of Venus (pUC-VYCE C155 construct) (Arabidopsis thaliana) (UniProt Q9LVE2); assay: split reporter; BiFC with split Venus (VYNE N173 / VYCE C155), gene gun delivery into onion epidermal cells, analysed one to two days after bombardment, at least three independent experiments; remark: listed apart in the source
[4] = biological target: PP2A regulatory subunit B’ζ fused to the C-terminal part of Venus (kanII-VYCE C155 construct) (Arabidopsis thaliana) (UniProt Q9LVE2); assay: split reporter; BiFC with split Venus (VYNE N173 / VYCE C155), transient expression in N. benthamiana leaves by Agrobacterium infiltration, analysed two days post infiltration, at least three independent experiments; remark: listed apart in the source

binding [3] | binding [4] | Molecule | other results
 |  | fumarase (FUM1) fused to the N-terminal Venus fragment (pUC-VYNE N173 construct) (from UniProt P93033 29-492) (enzyme) | binding [1]: no binding
 |  | fumarase (FUM1) fused to the N-terminal Venus fragment (hygII-VYNE N173 construct) (from UniProt P93033 29-492) (enzyme) | binding [2]: no binding
binds |  | aconitase (ACO3) fused to the N-terminal Venus fragment (pUC-VYNE N173 construct) (enzyme, UniProt Q9SIB9 79-990) VSPVLDRLQRTFSSMASEHPFKGIFTTLPKPGGGEFGKFYSLPALNDPRVDKLPYSIRILLESAIRNCDNFQVTKEDVEKIIDWEKTSPKQVEIPFKPARVLLQDFTGVPAVVDLACMRDAMNKLGSDSNKINPLVPVDLVIDHSVQVDVARSENAVQANMELEFQRNKERFAFLKWGSTAFQNMLVVPPGSGIVHQVNLEYLGRVVFNTKGLLYPDSVVGTDSHTTMIDGLGVAGWGVGGIEAEATMLGQPMSMVLPGVVGFKLAGKMRNGVTATDLVLTVTQMLRKHGVVGKFVEFYGNGMSGLSLADRATIANMSPEYGATMGFFPVDHVTLQYLKLTGRSDETVAMIEAYLRANNMFVDYNEPQQDRVYSSYLELNLDDVEPCISGPKRPHDRVTLKEMKADWHSCLDSKVGFKGFAIPKEAQEKVVNFSFDGQPAELKHGSVVIAAITSCTNTSNPSVMLGAGLVAKKACDLGLQVKPWIKTSLAPGSGVVTKYLLKSGLQEYLNEQGFNIVGYGCTTCIGNSGEINESVGAAITENDIVAAAVLSGNRNFEGRVHPLTRANYLASPPLVVAYALAGTVNIDFETEPIGKGKNGKDVFLRDIWPTTEEIAEVVQSSVLPDMFRATYESITKGNPMWNKLSVPENTLYSWDPNSTYIHEPPYFKDMTMDPPGPHNVKDAYCLLNFGDSITTDHISPAGNIQKDSPAAKFLMERGVDRKDFNSYGSRRGNDEIMARGTFANIRIVNKLMNGEVGPKTVHIPSGEKLSVFDAAMRYKSSGEDTIILAGAEYGSGSSRDWAAKGPMLQGVKAVIAKSFERIHRSNLVGMGIIPLCFKSGEDADTLGLTGHERYTIHLPTDISEIRPGQDVTVTTDNGKSFTCTVRFDTEVELAYFNHGGILPYVIRNLSKQ | 
 | no binding | citrate synthase (CSY5) fused to the N-terminal Venus fragment (hygII-VYNE N173 construct) (enzyme, UniProt Q9M1D3 26-464) SVRWLHSSELDLKSQMQEIIPEQQDRLKKLKSEQGKVPVGNITVDMVLGGMRGMTGLLWETSLLDADEGIRFRGMSIPECQKILPSAESGEEPLPESLLWLLLTGKVPTKEQANALSTELAHRAAVPAIDALPSTAHPMTQFASGVMALQVQSEFQKAYEQGDISKSKYWEPTFEDALNLIARVPVVASYVYRRMYKDGSIIPLDDSLDYGANFSHMLGFDSPQMKELMRLYVTIHSDHEGGNVSAHAGHLVGSALSDPYLSFAAALNGLAGPLHGLANQEVLLWIKLVVEECGESISKEQLKDYVWKTLNSGKVVPGYGHGVLRKTDPRYICQREFALKHLPDDPLFQLVSKLYEVVPPILTELGKVKNPWPNVDAHSGVLLNYYGLTEARYYTVLFGVSRSLGICSQLIWDRALGLPLERPKSVNMDWLDNFTRLNR | 
no binding |  | citrate synthase (CSY5) fused to the N-terminal Venus fragment (pUC-VYNE N173 construct) (enzyme, UniProt Q9M1D3 26-464) SVRWLHSSELDLKSQMQEIIPEQQDRLKKLKSEQGKVPVGNITVDMVLGGMRGMTGLLWETSLLDADEGIRFRGMSIPECQKILPSAESGEEPLPESLLWLLLTGKVPTKEQANALSTELAHRAAVPAIDALPSTAHPMTQFASGVMALQVQSEFQKAYEQGDISKSKYWEPTFEDALNLIARVPVVASYVYRRMYKDGSIIPLDDSLDYGANFSHMLGFDSPQMKELMRLYVTIHSDHEGGNVSAHAGHLVGSALSDPYLSFAAALNGLAGPLHGLANQEVLLWIKLVVEECGESISKEQLKDYVWKTLNSGKVVPGYGHGVLRKTDPRYICQREFALKHLPDDPLFQLVSKLYEVVPPILTELGKVKNPWPNVDAHSGVLLNYYGLTEARYYTVLFGVSRSLGICSQLIWDRALGLPLERPKSVNMDWLDNFTRLNR | 
 | no binding | succinate dehydrogenase (SDH2-1) fused to the N-terminal Venus fragment (hygII-VYNE N173 construct) (enzyme, UniProt Q8LBZ7 29-279) TSTGAEAETKASSGGGRGSNLKTFQIYRWNPDNPGKPELQNYQIDLKDCGPMVLDALIKIKNEMDPSLTFRRSCREGICGSCAMNIDGCNGLACLTKIQDEASETTITPLPHMFVIKDLVVDMTNFYNQYKSIEPWLKRKTPASVPAKEILQSKKDRAKLDGMYECILCACCSTSCPSYWWNPESYLGPAALLHANRWISDSRDEYTKERLEAIDDEFKLYRCHTILNCARACPKGLNPGKQITHIKQLQR | 
no binding |  | succinate dehydrogenase (SDH2-1) fused to the N-terminal Venus fragment (pUC-VYNE N173 construct) (enzyme, UniProt Q8LBZ7 29-279) TSTGAEAETKASSGGGRGSNLKTFQIYRWNPDNPGKPELQNYQIDLKDCGPMVLDALIKIKNEMDPSLTFRRSCREGICGSCAMNIDGCNGLACLTKIQDEASETTITPLPHMFVIKDLVVDMTNFYNQYKSIEPWLKRKTPASVPAKEILQSKKDRAKLDGMYECILCACCSTSCPSYWWNPESYLGPAALLHANRWISDSRDEYTKERLEAIDDEFKLYRCHTILNCARACPKGLNPGKQITHIKQLQR | 
 | binds | mitochondrial malate dehydrogenase (mMDH2) fused to the N-terminal Venus fragment (hygII-VYNE N173 construct) (enzyme, UniProt Q9LKA3 23-341) ASESVPDRKVVILGAAGGIGQPLSLLMKLNPLVSSLSLYDIANTPGVAADVGHINTRSQVSGYMGDDDLGKALEGADLVIIPAGVPRKPGMTRDDLFNINAGIVKNLSIAIAKYCPQALVNMISNPVNSTVPIAAEIFKKAGTYDEKKLFGVTTLDVVRARTFYAGKSDVNVAEVNVPVVGGHAGITILPLFSQASPQANLSDDLIRALTKRTQDGGTEVVEAKAGKGSATLSMAYAGALFADACLKGLNGVPNVVECSFVQSTITELPFFASKVRLGKNGVEEVLDLGPLSDFEKEGLEALKAELKSSIEKGIKFANQ | 
